The campaign covered roughly 50,000 compounds. About 800 (1.6%) showed an effect of 50% or more. The list shows a part of the results.
These compounds were tested against Bcl-2-like protein 10 (Homo sapiens) (UniProt Q9HD36) (assay: TR3 peptide-Bcl-B binding displacers, biochemical primary FP assay, phenotype converters (AID 1240;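 also: 0% = Bcl-B with tracer peptide and DMSO and 100% = tracer peptide lacking Bcl-B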)). Details: GST-Bcl-B / FITC-TR3 peptide fluorescence polarization; stronger effect = higher value; compound at 3.75 mg/L.
Sequence of UniProt Q9HD36 (Q9HD36 whole entry, looked up): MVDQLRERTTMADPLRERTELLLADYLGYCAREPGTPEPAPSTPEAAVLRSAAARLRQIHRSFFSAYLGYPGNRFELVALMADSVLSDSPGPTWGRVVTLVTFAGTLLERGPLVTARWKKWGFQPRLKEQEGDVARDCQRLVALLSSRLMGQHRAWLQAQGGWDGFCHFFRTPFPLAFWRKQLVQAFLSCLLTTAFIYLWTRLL

Row | SMILES | displacement
1 | CC(C)CCOC(=O)c1ccc2c3c(onc13)-c1ccccc1C2=O | 21%
2 | O=C1c2ccccc2NC(c2ccc(Cl)cc2Cl)N1Cc1ccco1 (centres undefined) | 12.4%
3 | COc1ccc(/C(O)=C2/C(=O)C(=O)N(CCCCCC(=O)O)C2c2ccc(C)cc2)cc1 (centres undefined) | -6.5%
4 | C#CCOC(=O)CN1C(=O)c2cccc3cccc(c23)C1=O | 7.9%
5 | Cc1oc2ccc(OC(C)C(=O)O)cc2c1C(=O)OC(C)C (centres undefined) | 8.1%
6 | O=C1C(=O)N(CCCn2ccnc2)C(c2ccc([N+](=O)[O-])cc2)/C1=C(\O)c1ccc(Cl)cc1 (centres undefined) | 3.9%
7 | O=C(Nc1ccc(OC(F)(F)F)cc1)c1ccc([N+](=O)[O-])cc1Cl | -0.6%
8 | O=C1CC(N2CCN(C(c3ccccc3)c3ccccc3)CC2)C(=O)N1c1ccc(Cl)cc1 (centres undefined) | 11.8%
9 | CC(NC(=O)Cc1ccccc1)c1ccc(Cl)c(Cl)c1 (centres undefined) | 11.1%
10 | CCOc1ccccc1NC(=O)C(=O)NCCCN1CCOCC1 | 9%
11 | CCOc1ccc(N2C(=O)NC(=O)/C(=C\c3ccc([N+](=O)[O-])cc3)C2=O)cc1 | -2.1%
12 | COC(=O)c1cc(C(=O)N2CCOCC2)cc([N+](=O)[O-])c1 | 10.5%
13 | COC(=O)c1cccc(OC)c1[N+](=O)[O-] | 10.6%
14 | COc1ccc2nc(-c3ccccc3)cc(C(=O)Nc3ccccc3C)c2c1 | 13.5%
15 | O=C(CN(Cc1ccccc1)S(=O)(=O)c1ccc(Br)cc1)N1CCOCC1 | -8%
16 | Cc1cc(C)c(S(=O)(=O)NCc2ccncc2)c(C)c1 | 11.4%
17 | O=P(CCCO)(c1ccc(Cl)cc1)c1ccc(Cl)cc1 | -24.4%
18 | O=C(Nc1ccc(S(=O)(=O)N2CCCCCC2)cc1)c1ccccc1[N+](=O)[O-] | -5.1%
19 | Cc1ccc(-c2nc3cc(Cl)ccc3o2)cc1NC(=O)c1ccc2ccccc2c1 | 128%
20 | COc1cc(/C=N/n2cnnc2)ccc1OCCOc1ccc(C(C)(C)C)cc1 | -0.9%
21 | O=C(NC1CCCCC1)c1ccc(Br)c(S(=O)(=O)N2CCOCC2)c1 | -2.8%
22 | COC(=O)c1c(N2C(=O)C=CC2=O)sc(C)c1C | -0.2%
23 | COC(=O)C1=C(C)NC2=C(C(=O)c3ccccc32)C1c1ccc(OCc2ccc([N+](=O)[O-])cc2)c(Cl)c1 (centres undefined) | 13.6%

Row | SMILES | displacement
24 | COc1ccc2c(c1)OCC/C2=N\OC(=O)c1cc(F)c(F)cc1Cl | 9.5%
25 | O=C(NCCOc1ccccc1Cl)c1cccc2ccccc12 | 13.4%
26 | Cc1nnc(C)n1/N=C/c1ccc(O)cc1 | -1.3%
27 | CCOC(=O)CCc1c(C)nc2cc(-c3cccc(Cl)c3)[nH]n2c1=O | -4.3%
28 | O=C(Cc1ccc(Cl)cc1)NCc1cccnc1 | -6%
29 | Cc1cc(NC(=O)c2ccc(-c3ccccc3)cc2)no1 | -5.6%
30 | CCC(=O)Nc1c(-c2ccc(C)cc2)nc2ccccn12 | 20%
31 | O=C(COc1ccc2ccccc2c1)Nc1ccc(S(=O)(=O)N2CCCC2)cc1 | 0.6%
32 | CC(=O)Nc1nonc1-c1ccccc1 | -11.6%
33 | COc1cc(/C=C2\N=C(c3ccccc3Cl)OC2=O)ccc1OC(=O)c1ccccc1Cl | -7.3%
34 | CCc1ccc(OCC(=O)Nc2ccc(NC(=O)c3ccco3)c(OC)c2)cc1 | -17.6%
35 | CCCOC(=O)/C(=C\c1cccc([N+](=O)[O-])c1)NC(=O)c1ccccc1 | -8.7%
36 | CC(=O)Oc1ccc2c(=O)c(-c3nc4ccccc4[nH]3)c(C)oc2c1 | 12.2%
37 | O=C(Nc1ccc2c(c1)OCCO2)c1cccc([N+](=O)[O-])c1 | 13%
38 | Nc1ccc(NC(=O)c2ccccc2)cc1 | 39.8%
39 | O=C(CSc1ncccn1)N/N=C/c1ccccc1Cl | 1.2%
40 | COc1ccccc1NC(=O)N1CCOCC1 | -6.8%
41 | Cc1cccc(CC2CC(=O)N(c3ccc(Cl)c(Cl)c3)C2=O)c1 (centres undefined) | 11.4%
42 | O=C(O)CCN1C(=O)/C(=C/c2cn(-c3ccccc3)nc2-c2cccs2)SC1=S | -14.1%
43 | COc1ccc(Cl)cc1C(=O)N1CCN(c2cccc(Cl)c2)CC1 | 12.3%
44 | CCc1ccccc1NS(=O)(=O)c1cccs1 | -1.4%
45 | C=CCOc1c(Cl)cc(/C=C2\C(=O)NC(=O)N(c3ccc(Cl)cc3)C2=O)cc1OC | 4.5%
46 | CC1=NN(C(=O)c2ccccc2)C(C)(O)C1 (centres undefined) | -11.2%

Row | SMILES | displacement
47 | O=C(Nc1cccc(C(F)(F)F)c1)c1cnn2c(C(F)(F)F)cc(-c3cccs3)nc12 | 13.5%
48 | COc1ccccc1N1CCN(S(=O)(=O)c2ccc(SC)cc2)CC1 | 11.2%
49 | COC(=O)CC12CC3CC(C1)CC(CC(=O)OC)(C3)C2 | 14.3%
50 | CN=C(Nc1ccccc1OC)SC1CC(=O)N(c2ccccc2F)C1=O (centres undefined) | -12.1%
51 | O=S(=O)(c1ccc(Br)cc1)n1nnc2ccccc21 | 11%
52 | COc1nc(Nc2ccc(I)cc2)nc(OC)n1 | -0.1%
53 | Cc1ccc(NC(=O)c2cccc(C(=O)Nc3ccc(C)cc3)n2)cc1 | 7.4%
54 | CC(C)(O)C#Cc1ccc(C(=O)OCC(=O)c2ccc([N+](=O)[O-])cc2)cc1 | 1.8%
55 | COc1ccc(/C=C2/SC(N3CCN(C(=O)CN4C(=O)S/C(=C\c5ccccc5F)C4=O)CC3)=NC2=O)cc1 | 11.1%
56 | COc1cc(NC(=O)C(=O)NCc2ccco2)c(OC)cc1Cl | -10.7%
57 | O=C(NCCNc1ccc([N+](=O)[O-])cc1)c1ccccc1Br | 29.5%
58 | COc1ccc(-c2cc(C(F)(F)F)n3ncc(C(=O)Nc4ccc5c(c4)OCO5)c3n2)cc1OC | 7.1%
59 | CCc1ccccc1NC(=O)c1c(NC(=O)c2cccs2)sc2c1CCCCC2 | 0.3%
60 | C=CCNC(=O)C1CC(=O)N(c2ccc(CC)cc2)C1 (centres undefined) | -1.8%
61 | COc1ccc(N(CC(=O)Nc2ccc(Br)cc2)S(C)(=O)=O)cc1Cl | -11%
62 | CC1=C(C(=O)OC(C)C)C(c2cccc(Cl)c2Cl)C2=C(CCCC2=O)N1 (centres undefined) | 3.3%
63 | CCN(CP(=O)(O)CN1CCOCC1)C(C)=O | 17.6%
64 | CCOC(=O)c1c(C)n(C)c2ccc(OC(=O)C#Cc3ccccc3)cc12 | 1.1%
65 | O=C(NCCN1CCOCC1)Nc1ccc(Cl)c(Cl)c1 | -1.1%
66 | CN(C)/C=C1\N=C(c2cccc(Br)c2)OC1=O | 0.8%
67 | CCOc1cccc(C2CC(=O)Nc3c2ccc2ccccc32)c1 (centres undefined) | -11.7%
68 | Cc1ccc(N=C2NC(=O)/C(=C\c3ccc(C)o3)S2)cc1 | -9.8%
69 | CCOc1ccc(NC(=O)CN(c2ccc(OC)c(Cl)c2)S(=O)(=O)c2ccccc2)cc1 | 1.3%
